Source: PubChem BioAssay (NCATS)
The list shows a part of the results. These are further read-outs of the screen, such as a control signal, another cell line or another target. No call is given for them. Potencies come from curve fits of mixed quality, noted in brackets.

Experiment: qHTS drug screen for cell cycle checkpoint inhibitors in PARPi-resistant BRCA-mutant ovarian cancer cell lines. (AID 1963452)
Conditions: PEO1/OlaR viability, CellTiter-Glo luminescence, 96 h; measured here: PEO1 parental viability
Summary of the method: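 PEO1, PEO4 and PEO1/OlaR ovarian cancer cells, 600 per well, exposed 96 h at 37C to a dilution series. Viability read by CellTiter-Glo luminescence, normalized to DMSO and empty wells; activity summarized as Z-AUC.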
Tags give direction and shape of the fitted curve.

For `C=CCNC1=C2CC(C)CC(OC)C(O)C(C)/C=C(\C)C(OC(N)=O)C(OC)/C=C/C=C(\C)C(=O)NC(=CC1=O)C2=O` (stereo not drawn), which AC50 is on record?
Its AC50 is 0.155 µM [falling, full curve].

With `CC(O)c1cc(C(=O)N[C@@H](C)Cn2ccc(-c3ccc(C#N)c(Cl)c3)n2)n[nH]1` (stereo partly drawn) as the compound, how does the AC50 read?
The AC50 was 11 µM [falling, partial curve].

For `[2H]C([2H])(Nc1nc(-c2ccccc2C([2H])(C([2H])([2H])[2H])C([2H])([2H])[2H])ncc1C)c1ccc(-n2ccnn2)cc1`, which AC50 is on record?
The AC50 was 21.9 µM [falling, single point].

Which AC50 does the source give for `O=C(CCNC(=O)c1ccc(OC(F)(F)F)cc1)N[C@@H]1CCCc2ccccc21` here?
Its AC50 is 0.692 µM [falling, full curve, poor fit].

With `CCN(CC)CCCC[C@H](NC(=O)[C@H](CC(C)C)NC(=O)[C@H](C)NC(=O)[C@H](Cc1ccccc1)NC(=O)c1ccc(C(C)(C)C)cc1)C(=O)N[C@@H](CO)C(=O)OC` as the compound, how does the AC50 read?
Its AC50 is 0.309 µM [rising, full curve, poor fit].

With `Cn1ncc2cc(-c3cnc(N)c(Cl)c3N3CCC4(CCNC4=O)CC3)ccc21` as the compound, how does the AC50 read?
Its AC50 is 24.5 µM [falling, single point].

For `CC1(C)OC2=C(C(=O)c3ccccc3C2=O)[C@H](NCc2ccccc2)[C@@H]1O`, which AC50 is on record?
Its AC50 is 7.76 µM [rising, partial curve, poor fit].

For `CC1CCC(n2c3cnccc3c3cnc(Nc4ccc5c(n4)CCN(C(=O)CO)C5)nc32)CC1` (stereo not drawn), which AC50 is on record?
The AC50 was 1.12 µM [rising, partial curve, poor fit].

With `COC(=O)C1=C(C)NC(c2ncc(F)cc2F)=N[C@H]1c1ccc(F)cc1Cl` as the compound, how does the AC50 read?
Its AC50 is 0.049 µM [falling, full curve, poor fit].

For `Cc1ccsc1C(=CCCN1CCC[C@@H](C(=O)O)C1)c1sccc1C`, which AC50 is on record?
Its AC50 is 27.5 µM [falling, partial curve, poor fit].

For `Cn1c(NC[C@@H](N)Cc2ccccc2)nc(-c2ccncc2)c(-c2ccc3ccccc3c2)c1=O`, which AC50 is on record?
The AC50 was 17.4 µM [falling, partial curve, poor fit].

Which AC50 does the source give for `Cc1cnc(-c2ccccc2C(C)C)nc1NCc1ccc(-n2ccnn2)cc1` here?
Its AC50 is 19.5 µM [falling, single point].

Which AC50 does the source give for `N=C1CCCN1Cc1[nH]c(=O)[nH]c(=O)c1Cl` here?
Its AC50 is 1.1 µM [rising, full curve, poor fit].

Which AC50 does the source give for `CCCCNc1ncc(-c2ccc(CN3CCOCC3)cn2)c(NC2CCC(O)CC2)n1` (stereo not drawn) here?
The AC50 was 9.52 µM [falling, partial curve, poor fit].

For `Cc1[nH]c(/C=C2\C(=O)Nc3ccc(F)cc32)c(C)c1C(=O)NC[C@H](O)CN1CCOCC1`, which AC50 is on record?
Its AC50 is 13.8 µM [falling, partial curve].

For `CN1CCN(C(=O)c2ccc3cc(CCNc4ncnc5ccc(C#N)cc45)ccc3c2)CC1`, which AC50 is on record?
The AC50 was 3.89 µM [falling, partial curve].

With `CC#CC(=O)N1CCC[C@H]1c1nc(-c2ccc(C(=O)Nc3ccccn3)cc2)c2c(N)nccn12` as the compound, how does the AC50 read?
The AC50 was 0.006 µM [rising, full curve, poor fit].

With `COc1ccc(S(=O)(=O)NCc2ccc(C(=O)NCCc3ccc(Cl)cn3)cc2)cc1` as the compound, how does the AC50 read?
The AC50 was 12.3 µM [falling, partial curve].

For `Cc1nc2ccc(C(=O)N3CCC4(CC3)CC(=O)c3c(cnn3C(C)C)C4)cc2[nH]1`, which AC50 is on record?
Its AC50 is 15.5 µM [falling, single point].

With `O=C(C(c1ccccc1)c1ccccc1)N1CCN(CC(O)COc2cccc3ncccc23)CC1` (stereo not drawn) as the compound, how does the AC50 read?
The AC50 was 15.5 µM [falling, single point].

With `Nc1nc(N)c2nc(-c3cccc(Cl)c3)c(N)nc2n1` as the compound, how does the AC50 read?
Its AC50 is 6.16 µM [falling, partial curve].

With `Cc1ccc(-c2nc(N)nc3c2nnn3Cc2cccc(CO[C@H]3CCOC3)n2)o1` as the compound, how does the AC50 read?
The AC50 was 27.5 µM [rising, partial curve, poor fit].

For `Cn1nccc1Nc1nccc(-c2cc3c(s2)C(C)(C)N(CCN2CCOCC2)C3=O)n1`, which AC50 is on record?
Its AC50 is 0.347 µM [falling, full curve].

With `CCc1cc2c(c(OCC(F)(F)F)c(C(=O)NC3CCN(C(=O)CO)CC3)n2C)c(=O)n1CC(=O)c1ccccc1` as the compound, how does the AC50 read?
The AC50 was 0.0549 µM [falling, full curve, poor fit].

Which AC50 does the source give for `CN(NC(=O)CC(=O)NN(C)C(=S)c1ccccc1)C(=S)c1ccccc1` here?
The AC50 was 0.219 µM [rising, full curve, poor fit].

Which AC50 does the source give for `Cc1nc(C)c(CN2CCN(C(c3ccc(F)cc3)c3ccc(F)cc3)CC2)nc1C` here?
The AC50 was 24.5 µM [falling, single point].

With `CO[C@H]1C[C@@H]2CC[C@@H](C)[C@@](O)(O2)C(=O)C(=O)N2CCCC[C@H]2C(=O)O[C@H]([C@H](C)C[C@@H]2CC[C@@H](OC(=O)C(C)(CO)CO)[C@H](OC)C2)CC(=O)[C@H](C)/C=C(\C)[C@@H](O)[C@@H](OC)C(=O)[C@H](C)C[C@H](C)/C=C/C=C/C=C/1C` as the compound, how does the AC50 read?
The AC50 was 0.0095 µM [falling, full curve].

For `CC(C)S(=O)(=O)c1ccc2nccc(Nc3ccc4scnc4c3)c2c1`, which AC50 is on record?
Its AC50 is 15.5 µM [falling, partial curve, poor fit].
